Laboratory results published in PMC4336329 (PLoS ONE, 2015).
The campaign covered roughly 310,000 compounds. About 2,200 (0.71%) showed an effect of 50% or more. The effect is printed as a negative number. Some of the results follow.

The molecules below were run against human ether-à-go-go-related gene (hERG) potassium channel (human, UniProt Q12809) (assay: primary screen, population patch clamp on CHO cells stably expressing hERG).
human ether-à-go-go-related gene (hERG) potassium channel, sequence (Q12809 whole entry, looked up): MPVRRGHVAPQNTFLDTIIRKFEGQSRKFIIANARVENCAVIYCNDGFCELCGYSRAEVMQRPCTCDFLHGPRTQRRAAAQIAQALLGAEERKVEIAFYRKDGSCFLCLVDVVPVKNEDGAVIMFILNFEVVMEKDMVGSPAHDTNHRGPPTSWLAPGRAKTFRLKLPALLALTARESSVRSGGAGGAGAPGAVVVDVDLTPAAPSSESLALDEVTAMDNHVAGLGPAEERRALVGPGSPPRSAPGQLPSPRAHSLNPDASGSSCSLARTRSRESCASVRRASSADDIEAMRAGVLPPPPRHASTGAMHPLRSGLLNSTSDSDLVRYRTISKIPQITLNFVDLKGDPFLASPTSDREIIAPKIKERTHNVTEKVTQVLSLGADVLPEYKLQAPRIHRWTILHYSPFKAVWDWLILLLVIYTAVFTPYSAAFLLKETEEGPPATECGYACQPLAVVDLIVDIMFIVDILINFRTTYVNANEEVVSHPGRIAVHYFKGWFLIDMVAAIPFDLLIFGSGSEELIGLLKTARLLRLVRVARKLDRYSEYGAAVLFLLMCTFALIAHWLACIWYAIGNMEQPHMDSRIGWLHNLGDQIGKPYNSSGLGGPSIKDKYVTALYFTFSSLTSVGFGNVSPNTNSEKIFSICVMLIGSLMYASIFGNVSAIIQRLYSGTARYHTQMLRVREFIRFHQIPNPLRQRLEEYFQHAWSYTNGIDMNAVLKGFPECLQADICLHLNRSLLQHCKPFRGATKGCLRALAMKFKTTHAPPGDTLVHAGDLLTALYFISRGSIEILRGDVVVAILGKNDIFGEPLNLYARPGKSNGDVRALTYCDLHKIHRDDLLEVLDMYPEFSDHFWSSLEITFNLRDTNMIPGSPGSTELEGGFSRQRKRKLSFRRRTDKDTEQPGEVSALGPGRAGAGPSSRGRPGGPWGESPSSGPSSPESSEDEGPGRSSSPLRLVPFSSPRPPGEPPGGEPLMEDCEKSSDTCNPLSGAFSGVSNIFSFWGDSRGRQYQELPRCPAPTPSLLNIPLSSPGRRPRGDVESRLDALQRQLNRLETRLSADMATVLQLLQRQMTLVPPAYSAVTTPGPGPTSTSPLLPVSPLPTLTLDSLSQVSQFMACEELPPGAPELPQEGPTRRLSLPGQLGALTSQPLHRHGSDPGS

SMILES | hERG current change (%, negative = inhibition) at 1uM
CCn1cc(Cl)c(C(=O)NNC(=O)CCn2cc([N+](=O)[O-])cn2)n1 | 14.8%
Cc1cc(C)n(CC2CC(=O)N(c3ccccc3)C2=O)n1 (stereo not drawn) | 11.8%
COc1cc(NC(=S)NCCc2ccc(S(N)(=O)=O)cc2)c(OC)cc1Cl | 14.6%
Cc1cc(=O)c(C(=O)O)nn1-c1ccc(Cl)cc1 | 12.9%
CC(=O)Nc1nnc(SCC(=O)NCc2ccc3c(c2)OCO3)s1 | 12.8%
Cc1cc(C#Cc2c(-c3ccccc3)n(C)c3ccccc23)ccc1F | 1.94%
CC1CCC2(CC1)NC(=S)N(C(C)(C)C)N2 (stereo not drawn) | 18%
CC(=O)Nc1ccc(NC(=O)CCOc2ccccc2C)cc1 | 17.5%
COc1ccc(S(=O)(=O)N2CCC3(CC2)OCCN3S(=O)(=O)c2ccccc2)cc1OC | 10.2%
CCN1CCN(c2ccc(S(=O)(=O)N3CCCCC3)cc2NC(=O)c2cc3ccccc3o2)CC1 | 0.811%
CC(=O)c1cn(CC(=O)Nc2ccccc2Cl)c2ccccc12 | 11.5%
Cc1c(Cl)cnc(NC(=O)COC(=O)c2ccc(S(=O)(=O)NCc3ccco3)cc2)c1Cl | 3.98%
Cc1cc(C(=O)COC(=O)c2ccc(Br)o2)c(C)n1Cc1ccco1 | 10.5%
CCN(CC)S(=O)(=O)c1ccc(O)c(NC(=O)CN2CCc3ccccc3C2)c1 | 15.7%
Cn1c(=O)n(CC(=O)OCc2ccccc2)c(=O)c2c1nc1n2CCCN1C1CCCCC1 | 7.78%
COc1ccc(N2CCN(C(=O)c3cc4c(s3)-c3ccccc3OC4)CC2)cc1 | 15.6%
CCOC(=O)C(O)(c1ccc(NC(=O)c2ccco2)c(OC)c1)C(F)(F)F (stereo not drawn) | 2.46%
CCOC(=O)CN1C(=O)C(O)=C(C(C)=O)C1c1ccc([N+](=O)[O-])cc1 (stereo not drawn) | -6%
CN(C)CCNC(=O)c1cccc(NS(=O)(=O)c2ccc(Cl)c(Cl)c2)c1 | 6.25%
C[n+]1ccc(/C=C/c2c[nH]c3ccccc23)cc1.[I-] | 5.04%
COc1ccc(S(N)(=O)=O)cc1C(=O)NCCCN1CCN(c2ccc(C)cc2)CC1 | -11.9%
COc1ccc(CCNC(=O)C(NS(=O)(=O)c2ccc3c(c2)CCN3C(C)=O)C(C)C)cc1OC (stereo not drawn) | -3.84%
Cc1ccc(-c2nc(CSc3nc4ccccc4c(=O)n3C)cs2)cc1 | 10.3%

SMILES | hERG current change (%, negative = inhibition) at 1uM
COc1ccc(O/C(=N\S(=O)(=O)c2ccccc2)c2ccccc2)cc1 | 7.56%
CCOC(=O)N1CCN(C(=O)COC(=O)c2ccc(O)cc2O)CC1 | 16.8%
CCc1nnc(NC(=O)CSc2nnc(-c3ccoc3C)n2-c2ccccc2)s1 | 14.5%
CCNC(=O)Nn1c(C)nnc1C | 8.29%
CC(C)(C)NC(=O)COc1ccc(S(=O)(=O)N2CCCC2)cc1 | 10.2%
CCn1cc(-c2nnnn2-c2ccc(Cl)cc2)c(=O)c2ccccc21 | -16.3%
CN(C)Cc1c[nH]c2ccccc12 | 12.8%
Cn1cnc([N+](=O)[O-])c1SCC(O)CN1CCCCC1 (stereo not drawn) | -3.77%
CC1(C)C(=O)Nc2ccccc2N1C(=O)COC(=O)COc1ccc(C#N)cc1 | 2.87%
Cc1ccc2nc(NC(=O)Cc3cccs3)sc2c1 | 3.4%
CCCCCC(=O)Nc1ccc(S(=O)(=O)Nc2nccc(C)n2)cc1 | 12%
CCOc1ccc2c(c1)C(C)=CC(C)(C)N2 | 14.7%
COc1ccc(CN2CCC(C(=O)c3cccc(Cl)c3)CC2)cc1 | -66.8%
Cc1ccc(C(=O)COC(=O)CCc2nc3ccccc3[nH]c2=O)cc1C | 18.5%
CCN1CCc2nc3ccccc3c(C(=O)Nc3ccc(NC(C)=O)cc3)c2C1 | 12.4%
NC(=O)C1(c2ccccc2)CCOCC1 | 15.5%
O=C(C1CCN(S(=O)(=O)c2ccc(F)cc2)CC1)N1CCOCC1 | 17.6%
Cc1ccc(-c2c(C(=O)N/N=C/c3ccc(OC(C)C)cc3)nnn2-c2nonc2N)cc1 | 6.6%
COc1ccc2c(c1)CC(=O)NC=C2 | 5.32%
CCCN1Cc2cccc(C(=O)N3CCN(c4ccc(OC)cc4)CC3)c2C1=O | -0.503%
COc1ccc(OC)c(N(C)S(=O)(=O)c2cc3c(cc2C)NC(=O)CO3)c1 | 12.2%
COc1ccc(C(CCN2CCOCC2)c2c(OC)cc(OC)c3c(C)cc(=O)oc23)cc1 (stereo not drawn) | -32.6%
CCN(CC)S(=O)(=O)c1cccc(NC(=O)CCNC(=O)c2ccc([N+](=O)[O-])cc2)c1 | -11.1%

SMILES | hERG current change (%, negative = inhibition) at 1uM
CCCOc1ccc(N2C(=O)CC(N(CCOC34CC5CC(CC(C5)C3)C4)C(C)=O)C2=O)cc1 (stereo not drawn) | 3.87%
CC(=O)Nc1ccc(C(=O)Nc2nnc(CCc3ccccc3)s2)cc1 | 12.3%
O=C(Cc1ccccc1F)Nc1ccc(Cl)nc1 | 2.16%
Cc1cc(OCC(=O)N2CCN(c3ncccn3)CC2)ccc1Cl | 5.91%
Cc1cc2cc(CNC(=O)c3ccc4c(c3)OCO4)ccc2[nH]1 | -1.16%
CCc1nnc(NC(=O)C(=O)NCCOC(=O)c2ccccc2)s1 | 20%
COC(=O)c1cn(C)c2ccc(S(=O)(=O)N3CC(C)CC(C)C3)cc2c1=O (stereo not drawn) | -1.16%
CC1=C(C/C(C)=C/c2ccccc2)/C(=C/CO)[C@@H]2OC(=O)O[C@]2(C)C12CC2 | 14.7%
COc1cccc(OCc2cc(C(=O)N3CCC(C(O)C(C)C)CC3)no2)c1 (stereo not drawn) | 2.91%
CCn1c(SCC(=O)Nc2ccc3c(c2)OCCO3)nnc1C1CC1 | 8.65%
CCCC(=O)Nc1ccccc1NC(=O)CN(C)S(=O)(=O)c1ccc(C)cc1 | 5.65%
Cc1cnc(NC(=O)C2CCC(C(C)(C)C)CC2)s1 (stereo not drawn) | 14.2%
CCCc1ccc(C(=O)CCC(=O)O)cc1 | 3.47%
Cc1ccc(C(=O)CNc2ccc(C)c(Cl)c2)cc1 | 9.8%
O=C(Nc1ccc(N2CCN(C(=O)c3ccc(Cl)cc3)CC2)cc1)c1ccc(Br)o1 | -32.4%
Clc1ccc(-n2nnc(-c3cccnc3Cl)n2)cc1Cl | 19.9%
Cc1ccc(C)n1-c1ccccc1N | 6.72%
COC(=O)c1ccc(C)c(-n2c(C)cc(C=O)c2C)c1 | 15.7%
CN(C)/C=C1\NC(=S)N(c2ccc(Cl)cc2)C1=O | 4.63%
Cc1ccc(C(=O)NCCc2nnc(SCC(=O)Nc3cccc(C(=O)O)c3)n2C)cc1 | 7.02%
COC(CNS(=O)(=O)c1ccc(S(=O)(=O)NC2CC2)cc1)OC | 20.2%
O=C(COc1ccc(Cl)cc1)Nc1ccc2c(c1)OCO2 | 17.8%
Cc1cccc(N2CCN(Cc3nc(-c4ccccc4Cl)oc3C)CC2)n1 | 11.3%

SMILES | hERG current change (%, negative = inhibition) at 1uM
O=C(Nc1ccccc1Cl)Oc1ccc(-c2ccccc2)cc1 | 5.71%
O=C(Nc1cccc(NC(=O)c2cccc(F)c2)c1)c1ccccc1 | -4.32%
COc1ccc(C2C(C(=O)c3ccccc3)=C(C)Nc3nc4ccccc4n32)c(OC)c1 (stereo not drawn) | 19.3%
Cc1ccc(S(=O)(=O)N2CCN(S(=O)(=O)N3CCOCC3)CC2)cc1 | 5.71%
O=C(NCc1ccccc1)c1c(F)c(F)c(F)c(F)c1F | 10%
CC(C)c1ccc(Oc2cccc(C(=O)/C(C#N)=C/N(C)C)c2)cc1 | 5.74%
O=C(CN1CCc2ccccc2C1)Nc1cc(S(=O)(=O)N2CCOCC2)ccc1N1CCOCC1 | 7.46%
N=C1C(c2nc3ccccc3s2)=C(O)CN1CCCO | -8.45%
Cc1cc(C(=O)O)cc(S(=O)(=O)N2CCOCC2)c1C | 4.46%
CCCCNCc1cc(OCC)c(OCC(N)=O)cc1Br | 3.45%
CCOc1nc2cnccc2n(CC(=O)Nc2ccc(C)c(C)c2)c1=O | 14.2%
Cn1c(N2CCNCC2)nc2ccccc21 | -0.492%
Cc1ccc(C23CC4CC(CC(C(=O)NC(C)C(N)=O)(C4)C2)C3)cc1 (stereo not drawn) | 4.87%
Cc1nn(-c2ccc(Cl)cc2)c(=O)c2ccccc12 | 8.78%
O=C(CCS(=O)(=O)c1cccs1)Nc1ccc(C(=O)NCc2ccccc2)cc1 | 14%
Cc1ccc2c(CC(=O)NCc3cccs3)coc2c1 | 6.97%
CNC(=O)c1c(NC(=O)C2=COCCO2)sc2c1CCC(C)C2 (stereo not drawn) | 13%
O=C1CN(C(=O)COC(=O)CNC(=O)c2ccccc2)c2ccccc2N1 | 13.9%
Cc1nc(-c2ccccc2)sc1-c1n[nH]c(=S)n1C | 21.8%
COc1cc(/C=C/C(=O)O)cc(OC)c1 | -0.702%
CCOC(=O)[C@@H]1[C@H]2COc3cc(OC)ccc3[C@H]2N2C(=O)N(c3ccc(C)cc3)C(=O)[C@@]12C | 12.6%
